Experimental data as given in patent US20140271458A1 (AbbVie / Abbott, published 2014).
Each block holds one binder with its values, some of them ahead of it.

Tests used:
Recombinant Human IL-1b = Recombinant Human IL-1b (human, UniProt P01584 117-269); experiment: cell-based or functional assay
Recombinant Human IL-17 = target: T1, Recombinant Human IL-17 (human, UniProt Q16552 20-155, limits assumed); experiment: cell-based or functional assay
T1 sequence (looked up): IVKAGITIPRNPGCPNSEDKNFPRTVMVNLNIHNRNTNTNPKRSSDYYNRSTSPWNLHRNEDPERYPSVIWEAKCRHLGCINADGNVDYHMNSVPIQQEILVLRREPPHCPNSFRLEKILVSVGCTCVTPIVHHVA

UniProt P01584, sequence (P01584 117-269 limits assumed): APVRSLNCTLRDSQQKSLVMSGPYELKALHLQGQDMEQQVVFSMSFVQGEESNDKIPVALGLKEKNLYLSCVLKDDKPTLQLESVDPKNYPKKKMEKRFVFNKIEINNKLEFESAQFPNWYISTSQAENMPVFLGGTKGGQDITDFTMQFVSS

- N-Terminal VD IL-1β Neutralization Assay (IC50 nM) (Recombinant Human IL-1b): 0.018 nM
- C-Terminal VD IL17 Neutralization Assay (IC50 nM) (Recombinant Human IL-17): 0.221 nM
B1: DVD2425 (bispecific antibody, human IgG1)
heavy: EVQLVESGGGVVQPGRSLRLSCSASGFIFSRYDMSWVRQAPGKGLEWVAYISHGGAGTYYPDSVKGRFTISRDNSKNTLFLQMDSLRPEDTGVYFCARGGVTKGYFDVWGQGTPVTVSSASTKGPSVFPLAPEVQLVQSGAEVKKPGSSVKVSCKASGGSFGGYGIGWVRQAPGQGLEWMGGITPFFGFADYAQKFQGRVTITADESTTTAYMELSGLTSDDTAVYYCARDPNEFWGGYYSTHDFDSWGQGTTVTVSS[human IgG1 constant region left out]
light: DIQMTQSPSSLSASVGDRVTITCRASGNIHNYLTWYQQTPGKAPKLLIYNAKTLADGVPSRFSGSGSGTDYTFTISSLQPEDIATYYCQHFWSIPYTFGQGTKLQITRTVAAPEIVLTQSPDFQSVTPKEKVTITCRASQDIGSELHWYQQKPDQPPKLLIKYASHSTSGVPSRFSGSGSGTDFTLTINGLEAEDAGTYYCHQTDSLPYTFGPGTKVDIKRTVAAPSVFIFPPSDEQLKSGTASVVCLLNNFYPREAKVQWKVDNALQSGNSQESVTEQDSKDSTYSLSSTLTLSKADYEKHKVYACEVTHQGLSSPVTKSFNRGEC

- N-Terminal VD IL-1β Neutralization Assay (IC50 nM) (Recombinant Human IL-1b): 0.026 nM
- C-Terminal VD IL17 Neutralization Assay (IC50 nM) (Recombinant Human IL-17): 0.071 nM
B2: DVD2426 (bispecific antibody, human IgG1)
heavy: B1 heavy
light: DIQMTQSPSSLSASVGDRVTITCRASGNIHNYLTWYQQTPGKAPKLLIYNAKTLADGVPSRFSGSGSGTDYTFTISSLQPEDIATYYCQHFWSIPYTFGQGTKLQITRTVAAPSVFIFPPEIVLTQSPDFQSVTPKEKVTITCRASQDIGSELHWYQQKPDQPPKLLIKYASHSTSGVPSRFSGSGSGTDFTLTINGLEAEDAGTYYCHQTDSLPYTFGPGTKVDIKRTVAAPSVFIFPPSDEQLKSGTASVVCLLNNFYPREAKVQWKVDNALQSGNSQESVTEQDSKDSTYSLSSTLTLSKADYEKHKVYACEVTHQGLSSPVTKSFNRGEC
